The list shows a part of the results.
B1: ENSG00000107863:be:win_51|CDS|ENSG00000107863|bound_else_gene|NA|bound_elsewhere_windowed (ssRNA)
RNA: GGGAGUUCUACAGUCCGACGAUCCAAGGCCUGCGAGGUCUCAAAAAAUAAAGAUGGAAAAGAACAAAGUGAAACUGUAUCACUGUCUGAAGAUGAAACAUUCUCCUGGCCAGGUCCCAAAACAGUUACGUUGAAAAGAACAUCCAACAGAGGAUUGAGCAUCA
B2: chr3:68976711:68977116:-|CDS|ENSG00000163378|control|control|control (ssRNA)
RNA: GGGAGUUCUACAGUCCGACGAUCCUUUUUAGGAAUACCAAAGUUUUCAACUUUUUCAGCUUUAGAAUUUGUAAAUAUUUUUGUAGAAUAUCAUAUGACUGUAAUUCCAGAGUGUUCCAACUUGUUUAUGAUAUAUUUGGGUAACAACAGAGGAUUGAGCAUCA
B3: chr13:108229279:108229380:+|CDS|ENSG00000139826|unk|total|mutant (ssRNA)
RNA: GGGAGUUCUACAGUCCGACGAUCGCUAACCGCCUUGGCUUCAUGGUCUUGGGCUCUCUGCCGUAUUUCUCUUUUACCUUUAACCGUGACUUUUCAUCUGUAUGGAGGCAUUAUCUUACUUUUGUUAAUAUUCAUAUCAACCGCCAACAGAGGAUUGAGCAUCA
B4: chr12:42456824:42456925:-|3pUTR|ENSG00000139174|unk|FALSE|unique (ssRNA)
RNA: GGGAGUUCUACAGUCCGACGAUCAUGAGCCACUGCGUCUGGCAAUAAUGUAACUUUGAAGCUUAAAAAUUAAUCCCAGUUUGUAGCAAUAACAGAAGACUAUCUACAACGGAAGAAAGAAGCAACUGCCUUACAGUUCUGUAACAACAGAGGAUUGAGCAUCA
B5: chr7:95294748:95294849:+|3pUTR|ENSG00000158528|msi1|total|mutant (ssRNA)
RNA: GGGAGUUCUACAGUCCGACGAUCGAGAAAGCCGACAGAAUCAGCUUCUCCUGGAAAGUGAAAGCAUCAAGUUCUAUUUAUGGCCGACAGAGGGUCCUUAUUUGCUUGUCCGUGGUGUCUAUGUGGGCCUAUUGAGGGAAUGGUCAACAGAGGAUUGAGCAUCA
B6: chr1:156672197:156672316:-|CDS|ENSG00000132688|unk|total|mutant (ssRNA)
RNA: GGGAGUUCUACAGUCCGACGAUCGACAUUGCAAUCCCUGCAAAAGGAGAAUCAAGAACUAAUGAAAUCUCUUGAAGGUAAUCCCGAGACAUUUUUAUUUCCAGGAACGGAAAAUCAAGAAUCCGUAAGUUCUCUGCAAGAGAACAACAGAGGAUUGAGCAUCA
B7: chr21:14371318:14371404:-|3pUTR|ENSG00000155304|msi1_unk|FALSE|overlapping (ssRNA)
RNA: GGGAGUUCUACAGUCCGACGAUCUAUGAAUAACAAUCUGAAGUCUUUUCAUAAAAAAAAUUAAUAAACUUUAGUUGUACAUUUAGCCAGUGUUAUUUGAAGUAUGUAACUUUUAAAAUAUUAAGUGUCUUGUAUGAUUAGAAUCAACAGAGGAUUGAGCAUCA
B8: ENSG00000136451:be:win_3401|3pUTR|ENSG00000136451|bound_else_gene|NA|bound_elsewhere_windowed (ssRNA)
RNA: GGGAGUUCUACAGUCCGACGAUCAUGUAAACAUGCCCUAUGUUUGUGCCUUUUAAUUAGUUUGUCUCAAUAAACAAAAUGUAGAGAAAAAUAUGUAGCUAUGACUUUGUUACAACUGUUCUUAUCCACAGUACAAAAAUGGUUCAACAGAGGAUUGAGCAUCA
B9: chr16:74621626:74621727:-|3pUTR|ENSG00000168411|msi1|FALSE|unique (ssRNA)
RNA: GGGAGUUCUACAGUCCGACGAUCCAUCUCAAAAAAAACAAACAAACAAAAAAAAACCCUGAUGCCAUUCCCAGUCCCCGUUGUAGGACAUCACAUUUAUAAAUCCAGGCUUUAGUCUUCUGGGCUCCACCAGUCUCUGCCCCACAACAGAGGAUUGAGCAUCA
B10: chr9:122916526:122916627:-|3pUTR|ENSG00000171448|unk|FALSE|unique (ssRNA)
RNA: GGGAGUUCUACAGUCCGACGAUCAUGCUUCCUAGCAUUGUGAUUUUUACAUGAUCCAGCCAAAGAGUACCAAUUCUAUGCAAUAGUGAGACUCUACCCUGUCAACCAAACAGCAUUUUUUGGUAUUUUCUGUCAACAUCAUUUCAACAGAGGAUUGAGCAUCA
B11: chr4:41699229:41699330:+|3pUTR|ENSG00000064042|msi1|total|mutant (ssRNA)
RNA: GGGAGUUCUACAGUCCGACGAUCGAUUACAUGAAUAUUGCACAUUCCCUUCUGGUUUCACAAACCCAUUUAUACAUAUUUCUCCGUGAGGCUCAUUGUACAUGUAUUGAAGCCCGAAUCGAGUCAAGAAAAAUAAAGCCCCAUCAACAGAGGAUUGAGCAUCA
B12: chr2:152649661:152649762:+|3pUTR|ENSG00000157827|msi1|total|mutant (ssRNA)
RNA: GGGAGUUCUACAGUCCGACGAUCCUACAAACCGACAACGUUGGCAUGUUCUUUUCUGUUUGUCUAUUAAUGGGCCUGCUUCUCCGCAAUAUCCGAAUGUUUUAUAAAAGCAAUUCAUGUUACUUUUCUGGUCUUUUCAUGGCACAACAGAGGAUUGAGCAUCA
B13: chr7:88202242:88202358:+|3pUTR|ENSG00000008277|unk|total|mutant (ssRNA)
RNA: GGGAGUUCUACAGUCCGACGAUCUCAGGACCGAUAAGCAUGUACUCCUUUUUUAACUUGCUGGAAGACUUGCCCCUCCAAACCCGCACCCCCAAAAGACAACUUCUUUCAGAAACGGGGUGUUUUACCUAAACACCGCCGCUUCAACAGAGGAUUGAGCAUCA
B14: chr16:14672609:14672749:-|CDS|ENSG00000069764|control|control|control (ssRNA)
RNA: GGGAGUUCUACAGUCCGACGAUCGGCAGAGAACAAAUGCCAAGAACUGUUGUGCAAGUGUGACCAGGAGAUUGCUAACUGCUUAGCCCAAACUGAGUACAACUUAAAGUACCUCUUCUACCCCCAGUUCCUAUGUGAGCCGGACAACAGAGGAUUGAGCAUCA
B15: chr12:54238554:54238587:-|3pUTR|ENSG00000094916|msi1_unk|total|mutant (ssRNA)
RNA: GGGAGUUCUACAGUCCGACGAUCGGGAGCACCCAUUUUAAACCUGGAGAGAACCAUGAUGUUUUCUUCUUCAAAUAACAAUCCCGUUUUUUUUCCCCCAGUACUAAAAUUGUAUUGUCUUUCAGACAAUAUAAUUUUUAUUUACAACAGAGGAUUGAGCAUCA
B16: chr6:117694021:117694122:+|CDS|ENSG00000153989|msi1|FALSE|unique (ssRNA)
RNA: GGGAGUUCUACAGUCCGACGAUCGCUGUCUCCGGAAGAUGGAAAAGCAGAUAUUGUAAGAGCUGCUCAGGACUUUUGCCAGUUAGUAGCCCAGAAGCAAAAGAGACCCACAGAUUUGGAUGUAGAUACGUUAGCCAGUUUACUCAACAGAGGAUUGAGCAUCA
B17: ENSG00000198589:be:win_9601|3pUTR|ENSG00000198589|bound_else_gene|NA|bound_elsewhere_windowed (ssRNA)
RNA: GGGAGUUCUACAGUCCGACGAUCUAAAUUCUUUGUAUGUUGUGAACUUUGAUCUCUAUUUCUCUUGCAACAGACUUCAAGUGGUCCCUCUUUUUUUCCUACACACUCAGCUCUUCUCUAAAAGCAAGGAUUUGGAAUGAACAACAACAGAGGAUUGAGCAUCA
B18: chr6:41028375:41028595:-|CDS|ENSG00000124602|control|control|control (ssRNA)
RNA: GGGAGUUCUACAGUCCGACGAUCUGAGGAGCAGAACGGCAGCCUGCAGGAGCUGCACUACCUCAUGACCGUCAUGGAGCGGCUAGACUGCGCCUCCGCCAUCCAGAACUACCUGAGUGGGACACACGGCGGCAGCCCAGGCCCCAACAGAGGAUUGAGCAUCA
B19: chr12:114680981:114681101:-|CDS|ENSG00000135111|unk|FALSE|unique (ssRNA)
RNA: GGGAGUUCUACAGUCCGACGAUCUAAAGUGAGAUGUUCUGGGCUGGAUAAAAAAGCCAAAUACAUUUUAUUGAUGGACAUUAUAGCUGCUGAUGACUGUCGUUAUAAAUUUCACAAUUCUCGGUGGAUGGUGGCUGGUAAGGCCAACAGAGGAUUGAGCAUCA
B20: chr10:116672031:116672132:-|3pUTR|ENSG00000165868|msi1|FALSE|unique (ssRNA)
RNA: GGGAGUUCUACAGUCCGACGAUCCCUUUCCUGCCUUGCAUUAAUGCUAUCUCCCUGUGUACUGUUUCUCUUAAAUGAGCAGAUAGAAAUCUGCAGUGUUGGCAGAUAGGUGAUGGAGAGGAUGAUAAUUUUAUCUUCUGGCCACAACAGAGGAUUGAGCAUCA
B21: chr10:122937732:122937852:-|CDS|ENSG00000119965|unk|total|mutant (ssRNA)
RNA: GGGAGUUCUACAGUCCGACGAUCGUAAGUGACAACUCAAAUAUACCCAACUCCGAGUUGCUGCCUUUUCUCCAGAAUUUAUGCCGUCAAGUUAAUCAUCUCCAUGUGGGAAAUAAGACCGAGUGUCAGGAAAACAUCACCAAGCAACAGAGGAUUGAGCAUCA
B22: chr2:200490383:200490484:-|CDS|ENSG00000155729|msi1|total|mutant (ssRNA)
RNA: GGGAGUUCUACAGUCCGACGAUCUCUCCAGCCAGUGCCAUCCAGACGUCGGCUGGGGCGACAGCAAACCGGUUUCAAAGUGGCCGCCGCAGAAAGGCAGCUCAGCGCUCUGCACCUUCCAGAGCCACGGCCCUGGUGGGCACGCAACAGAGGAUUGAGCAUCA

What follows are binders tested against MSI1 full-length (mouse, UniProt Q61474 1-362) (assay: nsRBNS (natural sequence RNA bind-n-seq); RBNS binding buffer (assumed for nsRBNS): 25 mM Tris pH 7.5, 150 mM KCl, 3 mM MgCl2, 0.01% Triton X-100, 500 ug/ml BSA, 20 U/ml SUPERase-In, 4 C; UNK is unkempt and MSI1 is Musashi-1; names of the RNAs are library labels; protein concentration not given here; high values mean tight binding).
UniProt Q61474, sequence (Q61474 whole entry): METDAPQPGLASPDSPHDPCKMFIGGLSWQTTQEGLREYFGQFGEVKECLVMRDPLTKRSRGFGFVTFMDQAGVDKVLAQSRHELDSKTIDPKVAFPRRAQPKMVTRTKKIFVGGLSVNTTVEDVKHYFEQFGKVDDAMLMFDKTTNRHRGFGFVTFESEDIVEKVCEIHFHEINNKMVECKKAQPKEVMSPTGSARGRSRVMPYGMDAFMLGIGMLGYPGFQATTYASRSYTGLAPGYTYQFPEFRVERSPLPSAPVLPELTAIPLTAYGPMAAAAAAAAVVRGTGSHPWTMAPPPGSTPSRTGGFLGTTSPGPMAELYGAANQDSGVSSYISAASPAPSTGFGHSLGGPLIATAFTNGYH
Binder B1 has a binding signal of 0.349 enrichment R.
Binder B2 has a binding signal of 5.23 enrichment R.
B3 gave a binding signal of 0.719 enrichment R.
B4 gave a binding signal of 0.548 enrichment R.
For B5, the binding signal was 0.433 enrichment R.
In the case of B6, the binding signal is reported as 0.111 enrichment R.
Binder B7 has a binding signal of 6.15 enrichment R.
B8 showed a binding signal of 7.89 enrichment R.
Work on B9 yielded a binding signal of 1.24 enrichment R.
In the case of B10, the binding signal is reported as 0.315 enrichment R.
For B11, the binding signal was 0.741 enrichment R.
With B12 the binding signal was 0.417 enrichment R.
With B13 the binding signal was 0.41 enrichment R.
In the case of B14, the binding signal is reported as 0.418 enrichment R.
B15 gave a binding signal of 0.474 enrichment R.
B16 showed a binding signal of 17.5 enrichment R.
Binder B17 has a binding signal of 0.416 enrichment R.
B18 gave a binding signal of 0.404 enrichment R.
In the case of B19, the binding signal is reported as 0.395 enrichment R.
B20 gave a binding signal of 0.275 enrichment R.
In the case of B21, the binding signal is reported as 0.448 enrichment R.
B22 was tested, and the binding signal was 0.334 enrichment R.

From PMC12136788
